Laboratory results from the supplement of paper PMC10338343.
± gives the standard deviation. The full ranking holds about 6,600 sequences; the median of “pre-steady-state target cleavage rate” is about 0.07, and the highest 2% start at about 0.72. The list shows a part of the results, in another mix than the full data.

What follows are sequences tested on MIWI (PIWIL1) piRISC loaded with Kctd7 piRNA (30 nt) (assay: pre-steady-state target cleavage rate (min^-1); MIWI and MILI are mouse PIWI proteins and EfPiwi is from a freshwater sponge; tags in brackets are library labels; higher = faster piRNA-guided slicing of the target). Conditions: guide: Kctd7 piRNA 5'p-UGUUAAUCUCUCAGAGAAGGUGACAGUGAU; auxiliary factor: 500 nM mouse GTSF1.
Method in brief: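 Cleave-'n-Seq: 1 nM active affinity-purified piRISC with one synthetic guide and 0.1 nM transcribed, DNA-blocked target RNA library were mixed, with or without 500 nM GTSF1 partner protein, in HEPES–potassium acetate buffer at 33 °C for 0–8 or 0–960 min. Uncleaved targets were sequenced and normalised to depth and to weakly complementary targets, three trials were pooled, and k3 was capped at 0.0001 min^-1. The pre-steady-state cleavage rate was fitted […].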

Sequence | pre-steady-state target cleavage rate
UAGUCAGACACCUUCUCUGAGAGAUUAACA | 0.43 ± 0.033
UAGUCUGUCACCUUCUCUGAGGGAUUAACA | 0.596 ± 0.026
UAGUCUGUCAGCUUCUCUGAGAGAAUAACA | 0.233 ± 0.041
UUCAGUGUCACCUUCUCUGAGAGAUAAACA | 0.264 ± 0.033
UACACUGAGUCCUUCUCUGAGAGAUUAAGA | 0.0483 ± 0.01
UACACUGUCACGUUCUCUGAGACAUUAACA | 0.0124 ± 0.0036
UAGUGACUCAGCUUCUCUGAGAGUUUAACA | 0.0478 ± 0.0085
UAGACAUGUCACCUUCUCUGAGAGAUUAACA | 0.517 ± 0.024
UAGUGACAGACCUUCAUCUGAGAGAUUAACA | 0.00476 ± 0.003
UAGUGAGUACACCUUCUCUGAGAGAUUAACA | 0.645 ± 0.039
AACACUGUCACCUUCACUGAGAGAUUAACA | 0.541 ± 0.025
AUCACUGUCACCUUCUCUGAGUGAAUAACA | 0.0149 ± 0.0068
AUCACUGUCACCUUCCUGAGAGAUUAACA | 0.158 ± 0.036
UAGACUGUCACCUUGUCAGAGAGAUUAACA | 0.1 ± 0.0087
UAGUGACUCACCUUCUCUGAGAGAUUUUGA | 0.0514 ± 0.016
UACACUGUCACCUUCUCUGAGGGAUUAACA | 0.611 ± 0.033
UAGUGUGUCACCUACUCUGAGAGAUUAACA | 0.598 ± 0.054
UACACUGACACCUUCACUGAGAGAUUAACA | 0.412 ± 0.025
UACAGUGUCACCUUCUCUGAGAGAUUUUGA | 0.199 ± 0.049
UAGUGACAGACCUUCUCUCAGAGAUUAACA | 0.00976 ± 0.0036

Sequence | pre-steady-state target cleavage rate
UAGUGUGUCACCUUCUCGUGAGAGAUUAACA | 0.0062 ± 0.0045
UACACUAGUCACCUUCUCUGAGAGAUUAACA | 0.663 ± 0.029
UAGACUGUCACCAUCUCUGACAGAUUAACA | 0.0599 ± 0.014
UAGUGACAGUGGAACUCUGAGAGAUUAACC [g2:g16:cont:t1C] | < 0.0001
UAGACUGUCUCCUUCUCUGAGAGAUUAUCA | 0.311 ± 0.037
UAGUGUGUCACCUUCUGAGAGAGAUUAACA | 0.074 ± 0.011
AUCACUGAGACCUUCUCUGAGAGAUUAUGA | 0.08 ± 0.02
UACACUGUCACCUUCUCUGUGAGAUUAACA | 0.208 ± 0.013
UAGUCUGUCACCUUCACUGACAGAUUAACA | 0.00597 ± 0.0035
UAGUGACUCACCUUGUGUGAGAGAUUAACA | 0.0243 ± 0.0049
UAGACUGUGACCUACUCUGAGAGAUUAACA | 0.422 ± 0.033
AUGUCUGUCACCUUCUCUGAGAGAUUAAGA | 0.126 ± 0.019
UUCACUGUCACCUUCUCUGAGAGAAUUUGA | 0.391 ± 0.094
UAGUGACAGUGGAACUCUGAGAGAUAUACA | < 0.0001
UUCACUGUCACCUUCUCUGAGAGCUUAACA | 0.197 ± 0.02
UUCACUGUCACCUUCUCUGAGAGAUAAAGA | 0.0545 ± 0.011
UAGUGAGUGACCUUCUCUGAGAGAUUAAGA | 0.209 ± 0.046
UAGUCUGUCUCCUUCUCUGAGAGAUUAACA | 0.576 ± 0.031
UAGUGACACACCUUGUCUGAGACAUUAACA | 0.156 ± 0.036
